Test results taken from ChEMBL document CHEMBL4888484, “Replenishing the malaria drug discovery pipeline: Screening and hit evaluation of the MMV Hit Generation Library 1 (HGL1) against asexual blood stage Plasmodium falciparum ,using a nano luciferase reporter read-out” (2022).
About 540 (0.36%) of roughly 150,000 compounds showed an effect of 50% or more. The list shows a part of the results.

Test system: Plasmodium falciparum
Test: Primary screen in NF54 nanoGlo assay, in single point, at 2uM, 72h; a lower Z score goes with more inhibition
Assay type: functional, Erythrocyte
Settings: timepoint 72 hour

Compound | % Inhibition [%] | Z score
C[C@@H](Cn1cccn1)C(=O)NC1CCN(S(=O)(=O)c2ccccc2)CC1 | -23 | 3.9
CC(C)(C)OC(=O)N1CCC(c2nc(-c3ccccc3)no2)CC1 | 14 | -1.78
CCCn1ncc(C(=O)N2CCc3nc(N)sc3C2)c1C | 8 | -1.07
Cc1ccc(CN2CCC[C@H](Cn3c(C)cnc3C3CC3)C2)o1 | -14 | 1.78
O=C(Cc1ccsc1)NCc1cn(-c2cccnc2)nn1 | 3 | -0.5
Cc1cc(NC(=O)N2CCNC(=O)CC2)nn1C1CCCCC1 | -4 | 0.85
Cc1occc1C(=O)NC[C@](C)(CC(C)C)NC(=O)c1ccoc1C | -8 | 1.03
O=C1CCC(=O)N1c1ccc(-c2ccc(N3C(=O)CCC3=O)cc2)cc1 | -13 | 1.75
CCn1cc(C(=O)N(Cc2ccc(OC)cc2OC)C2CCCC2)c(C)n1 | -9 | 1.46
Cn1cc(-c2ccn(Cc3cccc(C(=O)O)c3)n2)cn1 | -42 | 4.89
COC(=O)c1n[nH]cc1-c1cc(-c2cc3ccccn3c2)nc(N)c1C#N | -7 | 1.27
COc1ccc(CCC(=O)Nc2ccon2)cc1 | 3 | -0.36
CC(C)[C@H](C)N(C)c1nccn2cncc12 | -4 | 0.41
CCOC1CC(NC2CCN(C)C2=O)C1(CC)CC (configuration not stated) | -12 | 1.24
CC(C)(N)COc1c(F)c(F)c(F)c(F)c1F | 4 | -0.55
COc1ccc(Cc2nc(-c3ccoc3)n(CC(C)(C)O)n2)cc1 | -11 | 2.18
C#CCCN1CCN(C(=O)[C@@H](C)CC(=O)OC)CC1 | -6 | 0.94
O=C1N[C@@](Cc2ccccc2Cl)(C2CCN(Cc3ccc4c(c3)CCO4)CC2)C(=O)N1CC1CC1 | 8 | -1.05
Cc1cc(C(=O)NCc2ccc(NC(=O)C(F)(F)F)nc2)nn1C | -7 | 0.96
CC1CN(C(C)C(=O)N2CC(=O)Nc3ccccc32)CCO1 (configuration not stated) | -5 | 0.57
C=C(c1ccc(C)cc1)n1c(=O)[nH]c2ccccc21 | -8 | 0.86
COCCN1CCC(C(=O)N2CCC(Oc3cccc(F)c3)CC2)CC1 | -13 | 1.46

Compound | % Inhibition [%] | Z score
COc1ccc(CC(=O)N2c3ccccc3C[C@H]2c2nc(C3CC3)no2)cc1OC | -7 | 0.98
COC(=O)c1n[nH]c2c1CN(c1nccc(C)n1)CC2 | -8 | 0.89
CN(C)CC1CCC(NC(=O)c2cc(S(=O)(=O)N3CCCCC3)ccc2Cl)CC1 (configuration not stated) | -7 | 0.77
CN(C[C@H]1CCCN1C)c1ncc(C#N)c(N)n1 | -7 | 0.84
CNC(=O)c1noc(CNC(=O)c2cccc(N3Cc4ccccc4C3)c2)n1 | 10 | -1.4
c1cc(-c2noc(C3CC3)n2)ccc1O[C@H]1CCNC1 | -6 | 0.7
Cc1noc(C)c1C(=O)Nc1ccc2c(c1)C(=O)N(C)C2=O | -24 | 2.86
C[C@H]1CCN(CCNC(=O)Nc2cc3ccccc3nn2)C1 | 2 | -0.29
CCc1ccccc1-n1c(=O)c2cc(C)ccc2n(CC(=O)N2CCOCC2)c1=O | -26 | 2.48
CC(C)Cc1cc(CN2C[C@H]3C[C@H](O)[C@H](O)C[C@H]3C2)n[nH]1 | -5 | 0.54
CC(C)Nc1nc2nonc2n2cnnc12 | 77 | -8.71
Cc1nc(-c2ccccc2)cc2nn(CC(=O)N3CCOCC3)c(=O)n12 | 34 | -4.93
O=C1C[C@]2(NC(=O)c3ccc(C(F)F)cc3F)CCCC[C@@H]2N1 | -3 | 0.37
COc1c(C2CCCN2C2CC(C)OC2=O)c(C)nn1C (configuration not stated) | -7 | 0.77
CC(C)[C@H](CO)CNC(=O)N(C)Cc1ncc[nH]1 | -12 | 1.63
CC(=O)Nc1ccc(NC(=O)CN2CC[C@H](c3ccncc3)C2)cc1 | -7 | 1.05
CCC(CC)NC(=O)CON=C(N)c1cccs1 | -4 | 0.53
OC[C@@H]1COCCN(Cc2ccc(Cl)s2)C1 | 20 | -2.51
CN1C(=O)C[C@H](NS(=O)(=O)CCc2cccs2)C1=O | -2 | 0.35
CCn1ccc2cc(CN3C[C@@H]4[C@H](C3)[C@H]4C(=O)O)ccc21 | -3 | 0.67
CCCc1nc(Cn2c(C(C)C)cc(=O)c3cccc(CC)c32)no1 | -4 | 0.47
CC(C)N1CCN(C(=O)c2nc(-c3ccnc(N4CCCC4)c3)no2)CC1 | -15 | 2.62

Compound | % Inhibition [%] | Z score
Cc1ccccc1CN1C(=O)CCn2nccc21 | -5 | 0.69
O=C(Cc1ccccc1)Nc1ccc2c(c1)Cc1cc(NC(=O)Cc3ccccc3)ccc1-2 | -17 | 2.15
CC1CCCC(OC(C)C(=O)N2CC3CCCC(C2)C3O)C1 (configuration not stated) | 10 | -0.86
CCN(CC)c1nc2cc(C(=O)NCc3ccccc3)ccc2c(=O)n1Cc1ccc(C)cc1 | -9 | 1.6
COc1ccccc1NC(=O)c1sc(=S)n(Cc2ccccc2)c1N | 3 | -0.31
C[C@H]1Cc2cc(S(=O)(=O)Nc3nnc(C4CC4)o3)ccc2O1 | -16 | 1.37
COCC[C@](C)(O)CNC(=O)c1csc(C2CCCCC2)c1 | 10 | -1.23
COc1ccc(C[C@]2(C)OC(c3ccccc3)=NN2C(C)=O)cc1 | -1 | 0.14
Cc1oc2ncnc(N3CCC[C@H](C(=O)NCc4ccc5c(c4)OCO5)C3)c2c1C | 3 | -0.31
O=C(Cc1cccs1)NCc1nn(C2CCCC2)c2c1COCC2 | -16 | 3.02
O=c1nc(C(F)(F)F)ccn1Cc1nnc2n1CCOCC2 | -14 | 2.72
CC[C@@H](CC#N)OC(=O)c1cccc(F)c1 | -14 | 2.56
O=C(Cc1noc(-c2cccc3[nH]ccc23)n1)NC1CCCC1 | 0 | 0.01
Cn1c(=O)n(-c2ccc(N)cc2)c(=O)n1C | 3 | -0.35
CCc1nc(Cc2ncccc2C)n(CCO)n1 | 9 | -1.65
Cc1nonc1CN(C)C(=O)c1ccccc1NCc1cccs1 | -1 | 0.15
CC(C)Cc1cc(Cn2cnc(-c3ccccc3)c2-c2ncc[nH]2)on1 | -2 | 0.28
O=C(CCCc1ccc(F)c(F)c1)NC1CCCC1C(=O)O (configuration not stated) | -11 | 1.46
Nc1cccc(-c2nnc(-c3cccnc3)[nH]2)c1 | 3 | -0.41
CC(C)COCCCNS(=O)(=O)c1ccc(C(N)=O)cc1 | -1 | 0.28
CCn1cc(NC(=O)c2cc(C3CC3)nc3onc(-c4cccc(OC)c4)c23)cn1 | -4 | 0.58
Cn1c(CNc2nc(C3CCCC3)ns2)nc2ccccc21 | 16 | -2

Compound | % Inhibition [%] | Z score
CC(C)(O)[C@H](Oc1ccccc1)c1nc(-c2cnccn2)no1 | -2 | 0.34
C[C@H]1CC[C@@H](C(=O)O)N1S(=O)(=O)c1ccc2nc(C(C)(C)C)sc2c1 | -10 | 1.54
Cn1cnn(C[C@H]2CCCC2(F)F)c1=O | -7 | 0.98
COc1ccc(CN2C[C@H]3CN(S(=O)(=O)c4ccc(Cl)cc4)CCN3C2=O)cc1 | -12 | 1.57
CCn1nc(C)c(CN/C(=N\c2ccc(F)c(Cl)c2)NC(=O)c2ccccc2C)c1C | -5 | 0.88
CC(=O)C[C@H]1COCCN1C(=O)Cn1c(=O)cnc2ccccc21 | -8 | 1.14
COCCN1CC[C@H](CN(C)S(=O)(=O)c2ccc(C(C)C)cc2)C1 | -3 | 0.64
CC[C@H](C)N(Cc1ccsc1)Cc1cc(C#CCO)cs1 | -8 | 1.08
Cc1ccc(S(=O)(=O)N2CCC[C@H](C3OCCO3)C2)c(Cl)c1 | -14 | 2.66
O=C1CC(C(=O)N2CCCC2c2ccncc2)CN1C1CCCC1 (configuration not stated) | -2 | 0.14
CCc1ccc(-c2cc3c(=O)n(CC(=O)NCCN4CCCC4)nc(C)n3n2)cc1 | 0 | -0.06
Cc1ccccc1-c1ncc(CN2CCC[C@H](c3nnc(CO)n3C)C2)s1 | -11 | 2.05
CO[C@@]1(C(=O)NCC2(CO)CC3(CCC3)C2)CCOC1 | 0 | 0.06
CCc1ccc(CN(C)C(=O)CN2CCC[C@H]2c2ccc3c(c2)OCCCO3)cc1 | 2 | -0.31
Cc1cc(C(=O)N(CCN2CCOCC2)c2nc3c(C)c(C)ccc3s2)on1 | -7 | 1.06
Cc1c(-c2ccnc3cc(C(=O)Nc4cccc(F)c4)nn23)cnn1C | 1 | -0.16
Cc1ncc(S(=O)(=O)N2CCC(N3CCc4cc(F)ccc43)CC2)s1 | -11 | 1.75
O=C(Nc1nncs1)[C@H]1CCCN(C(=O)C2(c3cccc(Cl)c3)CCC2)C1 | -5 | 0.88
COc1ccc(C)cc1NC(=O)CNC(=O)CN1CCN(S(=O)(=O)c2ccc(C(C)=O)cc2)CC1 | -3 | 0.56
Cc1ccc(-n2ccc(=O)c(C(=O)Nc3c(C(=O)c4ccc(Cl)cc4)oc4ccccc34)n2)cc1 | -15 | 2.69
